Legend:
Assay type in all cases: in vivo
[1] = system: Botrytis cinerea; experiment: Test Example B: Gray mold on tomato; conditions: for Test B (control value class, gray mold on tomato): in vivo; for Test B control value (gray mold on tomato): preventive, control value class
From the text: [Test Example B] Gray Mold on Tomato
Seeds of a test plant (tomato variety: Oogata Fukuju) were planted followed by cultivating until three to five first leaves (true leaves) appeared.

[2] = system: Plasmopara viticola; experiment: Test Example G: Downy mildew on vine; conditions: for Test G (control value class): 250 ppm spray; for Test G (control value class, downy mildew on vine): 250 ppm, sprayed 2.5 ml/pot before inoculation; for Test G control value (downy mildew on vine): 250 ppm spray (2.5 ml/pot), preventive, control value class
From the text: [Test Example G] Downy Mildew on Vine
Seeds of a test plant (grape variety: Neomuscat) were planted followed by cultivating until three to four first leaves appeared. […] After the sprayed dilutions were dried, a zoosporangia suspension (1-2×10^4 zoosporangia/ml) of Plasmopara viticola was inoculated to the plants by spraying.

[3] = system: Alternaia brassicicola; experiment: Test Example C: Alternaria sooty spot on cabbage; conditions: for Test C (control value class): Alternaria sooty spot on cabbage; for Test C (control value class, Alternaria sooty spot on cabbage): in vivo; for Test C control value (Alternaria sooty spot on cabbage): preventive, control value class
From the text: [Test Example C] Alternaria Sooty Spot on Cabbage
Seeds of a test plant (cabbage variety: Shikidori) were planted followed by cultivating until the cotyledons extended.

[4] = system: Puccinia recondita; experiment: Test Example E: Brown rust on wheat; conditions: for Test E (control value class, brown rust on wheat): in vivo; for Test E control value (brown rust on wheat): preventive, control value class
From the text: [Test Example E] Brown Rust on Wheat

[5] = system: Blumeria graminis f sp. hordei; experiment: Test Example D: Powdery mildew on barley; conditions: for Test D (control value class, powdery mildew on barley): in vivo; for Test D control value (powdery mildew on barley): preventive, control value class
From the text: [Test Example D] Powdery Mildew on Barley
After the sprayed dilutions were dried, conidia of Blumeria graminis f sp. hordei were inoculated to the plants by shaking off.

[6] = gray mold on tomato, Botrytis cinerea, 250 ppm spray
[7] = downy mildew on vine, Plasmopara viticola, 7-10 days after inoculation
[8] = brown rust on wheat, Puccinia recondita, 250 ppm spray
[9] = powdery mildew on barley, 250 ppm spray
[10] = Gray mold on tomato, control value=100{1-(n/3)}
[11] = Downy mildew on vine, 2.5 ml/pot, evaluated 7-10 days after inoculation
[12] = Brown rust on wheat, control value=100{1-(n/3)}
[13] = Powdery mildew on barley, control value=100{1-(n/3)}
[14] = evaluated 7-10 days after inoculation

| SMILES | Test B (control value class, gray mold on tomato) [1] | Test G (control value class, downy mildew on vine) [2, 14] | Test C (control value class, Alternaria sooty spot on cabbage) [3] | Test E (control value class, brown rust on wheat) [4] | Test D (control value class, powdery mildew on barley) [5] | Test B control value (gray mold on tomato) ([1]; 250 ppm spray) | Test G control value (downy mildew on vine) ([2]; 7-10 days after inoculation) | Test C control value (Alternaria sooty spot on cabbage) ([3]; 250 ppm spray) | Test E control value (brown rust on wheat) ([4]; 250 ppm spray) | Test D control value (powdery mildew on barley) ([5]; 250 ppm spray) | other results |
| --- | --- | --- | --- | --- | --- | --- | --- | --- | --- | --- | --- |
| COc1ccc(Cl)c(-c2ccc(=O)n(C3CC3)c2-c2c(F)cccc2F)c1 [Compound 496] |  |  |  |  |  |  |  |  |  |  | Test B (control value class) [1, 6]: H (H shows more than 50% of control values); Test G (control value class) [2, 7]: L (L shows 50% or less of control values); Test C (control value class) ([3]; 250 ppm spray): H (H shows more than 50% of control values); Test E (control value class) [4, 8]: H (H shows more than 50% of control values); Test D (control value class) [5, 9]: H (H shows more than 50% of control values) |
| CCn1c(-c2c(F)cc(F)cc2F)c(-c2cc(OC)ccc2Cl)cc(C)c1=O [Compound 769] |  |  |  |  |  |  |  |  |  |  | Test B (control value class) [1, 10]: H (H shows more than 50% of control values); Test G (control value class) [2, 11]: L (L shows 50% or less of control values); Test C (control value class) ([3]; control value=100{1-(n/3)}): H (H shows more than 50% of control values); Test E (control value class) [4, 12]: H (H shows more than 50% of control values); Test D (control value class) [5, 13]: H (H shows more than 50% of control values) |
| Cn1c(-c2c(F)cc(F)cc2F)c(-c2ccc(F)cc2Cl)cc(Cl)c1=O [Compound 596] | H (H shows more than 50% of control values) | L (L shows 50% or less of control values) | H (H shows more than 50% of control values) | H (H shows more than 50% of control values) | H (H shows more than 50% of control values) |  |  |  |  |  |  |
| CCn1c(-c2c(F)cccc2F)c(-c2cc(OCCOC)ccc2Cl)cc(Br)c1=O [Compound 196] |  |  |  |  |  | H (H shows more than 50% of control values) | H (H shows more than 50% of control values) | H (H shows more than 50% of control values) | H (H shows more than 50% of control values) | H (H shows more than 50% of control values) |  |
| O=c1ccc(-c2cc(F)ccc2Cl)c(-c2c(F)cccc2F)n1CC(F)F [Compound 391] |  |  |  |  |  |  |  |  |  |  | Test B (control value class) [1, 6]: H (H shows more than 50% of control values); Test G (control value class) [2, 7]: L (L shows 50% or less of control values); Test C (control value class) ([3]; 250 ppm spray): H (H shows more than 50% of control values); Test E (control value class) [4, 8]: H (H shows more than 50% of control values); Test D (control value class) [5, 9]: H (H shows more than 50% of control values) |
| CCn1c(-c2c(F)cccc2F)c(-c2cc(OCC3CC3)ccc2Cl)cc(Cl)c1=O [Compound 221] |  |  |  |  |  | H (H shows more than 50% of control values) | L (L shows 50% or less of control values) | H (H shows more than 50% of control values) | H (H shows more than 50% of control values) | H (H shows more than 50% of control values) |  |
| CCn1c(-c2c(F)cccc2F)c(-c2cccc(Br)c2)cc(Cl)c1=O [Compound 328] |  |  |  |  |  | L (L shows 50% or less of control values) | L (L shows 50% or less of control values) | L (L shows 50% or less of control values) | L (L shows 50% or less of control values) | L (L shows 50% or less of control values) |  |
| CCn1c(-c2c(F)cc(OC)cc2F)c(-c2cccc(OC)c2Cl)cc(Cl)c1=O [Compound 640] | H (H shows more than 50% of control values) | H (H shows more than 50% of control values) | H (H shows more than 50% of control values) | H (H shows more than 50% of control values) | H (H shows more than 50% of control values) |  |  |  |  |  |  |
| O=c1c(Cl)cc(-c2cccc(Cl)c2Cl)c(-c2c(F)cccc2F)n1CC(F)F [Compound 367] |  |  |  |  |  | H (H shows more than 50% of control values) | L (L shows 50% or less of control values) | H (H shows more than 50% of control values) | H (H shows more than 50% of control values) | H (H shows more than 50% of control values) |  |
| CCOc1cc(F)c(-c2c(-c3cccc(F)c3Cl)cc(Cl)c(=O)n2CC)c(F)c1 [Compound 658] | H (H shows more than 50% of control values) | L (L shows 50% or less of control values) | H (H shows more than 50% of control values) | H (H shows more than 50% of control values) | H (H shows more than 50% of control values) |  |  |  |  |  |  |
| COC(=O)Oc1ccc(Cl)c(-c2ccc(=O)n(C)c2-c2c(F)cccc2F)c1 [Compound 298] |  |  |  |  |  | H (H shows more than 50% of control values) | L (L shows 50% or less of control values) | H (H shows more than 50% of control values) | H (H shows more than 50% of control values) | H (H shows more than 50% of control values) |  |
| CCOc1cc(F)c(-c2c(-c3cccc(F)c3Cl)ccc(=O)n2CC)c(F)c1 [Compound 657] | H (H shows more than 50% of control values) | L (L shows 50% or less of control values) | H (H shows more than 50% of control values) | H (H shows more than 50% of control values) | H (H shows more than 50% of control values) |  |  |  |  |  |  |
| CCn1c(-c2c(F)cc(F)cc2F)c(-c2cc(F)cc(F)c2)ccc1=O [Compound 789] |  |  |  |  |  |  |  |  |  |  | Test B (control value class) [1, 10]: H (H shows more than 50% of control values); Test G (control value class) [2, 11]: L (L shows 50% or less of control values); Test C (control value class) ([3]; control value=100{1-(n/3)}): H (H shows more than 50% of control values); Test E (control value class) [4, 12]: H (H shows more than 50% of control values); Test D (control value class) [5, 13]: H (H shows more than 50% of control values) |
| COc1cc(F)c(-c2c(-c3cc(F)cc(F)c3)cc(Cl)c(=O)n2C)c(F)c1 [Compound 807] |  |  |  |  |  |  |  |  |  |  | Test B (control value class) [1, 10]: H (H shows more than 50% of control values); Test G (control value class) [2, 11]: L (L shows 50% or less of control values); Test C (control value class) ([3]; control value=100{1-(n/3)}): H (H shows more than 50% of control values); Test E (control value class) [4, 12]: H (H shows more than 50% of control values); Test D (control value class) [5, 13]: L (L shows 50% or less of control values) |
| CN1C(=O)CCC(c2ccc(F)cc2Cl)=C1c1c(F)cc(F)cc1F [Compound 574] | H (H shows more than 50% of control values) | H (H shows more than 50% of control values) | H (H shows more than 50% of control values) | H (H shows more than 50% of control values) | H (H shows more than 50% of control values) |  |  |  |  |  |  |
| Cc1cc(-c2ccccc2Cl)c(-c2c(F)cc(F)cc2F)n(C)c1=O [Compound 731] | H (H shows more than 50% of control values) | H (H shows more than 50% of control values) | H (H shows more than 50% of control values) | H (H shows more than 50% of control values) | H (H shows more than 50% of control values) |  |  |  |  |  |  |
| COc1cc(F)c(-c2c(-c3ccccc3F)ccc(=O)n2C)c(F)c1 [Compound 544] |  |  |  |  |  |  |  |  |  |  | Test B (control value class) [1, 6]: H (H shows more than 50% of control values); Test G (control value class) [2, 7]: L (L shows 50% or less of control values); Test C (control value class) ([3]; 250 ppm spray): H (H shows more than 50% of control values); Test E (control value class) [4, 8]: H (H shows more than 50% of control values); Test D (control value class) [5, 9]: H (H shows more than 50% of control values) |
| Cn1c(-c2c(F)cccc2F)c(-c2cc(F)ccc2F)cc(Br)c1=O [Compound 485] |  |  |  |  |  |  |  |  |  |  | Test B (control value class) [1, 6]: H (H shows more than 50% of control values); Test G (control value class) [2, 7]: L (L shows 50% or less of control values); Test C (control value class) ([3]; 250 ppm spray): H (H shows more than 50% of control values); Test E (control value class) [4, 8]: H (H shows more than 50% of control values); Test D (control value class) [5, 9]: H (H shows more than 50% of control values) |
| CCn1c(-c2c(F)cc(F)cc2F)c(-c2cc(Cl)ccc2Cl)cc(Cl)c1=O [Compound 355] |  |  |  |  |  | H (H shows more than 50% of control values) | L (L shows 50% or less of control values) | H (H shows more than 50% of control values) | H (H shows more than 50% of control values) | H (H shows more than 50% of control values) |  |

Source: patent US10299477B2 (priority 2015, dated 2019)
